Among all 310,000 compounds or so, about 2,200 (0.71%) showed an effect of 50% or more. The effect is printed as a negative number. Some of the results follow.
The compounds below were run against human ether-à-go-go-related gene (hERG) potassium channel (human, UniProt Q12809) (assay: primary screen, population patch clamp on CHO cells stably expressing hERG).
Sequence of human ether-à-go-go-related gene (hERG) potassium channel (Q12809 whole entry, looked up): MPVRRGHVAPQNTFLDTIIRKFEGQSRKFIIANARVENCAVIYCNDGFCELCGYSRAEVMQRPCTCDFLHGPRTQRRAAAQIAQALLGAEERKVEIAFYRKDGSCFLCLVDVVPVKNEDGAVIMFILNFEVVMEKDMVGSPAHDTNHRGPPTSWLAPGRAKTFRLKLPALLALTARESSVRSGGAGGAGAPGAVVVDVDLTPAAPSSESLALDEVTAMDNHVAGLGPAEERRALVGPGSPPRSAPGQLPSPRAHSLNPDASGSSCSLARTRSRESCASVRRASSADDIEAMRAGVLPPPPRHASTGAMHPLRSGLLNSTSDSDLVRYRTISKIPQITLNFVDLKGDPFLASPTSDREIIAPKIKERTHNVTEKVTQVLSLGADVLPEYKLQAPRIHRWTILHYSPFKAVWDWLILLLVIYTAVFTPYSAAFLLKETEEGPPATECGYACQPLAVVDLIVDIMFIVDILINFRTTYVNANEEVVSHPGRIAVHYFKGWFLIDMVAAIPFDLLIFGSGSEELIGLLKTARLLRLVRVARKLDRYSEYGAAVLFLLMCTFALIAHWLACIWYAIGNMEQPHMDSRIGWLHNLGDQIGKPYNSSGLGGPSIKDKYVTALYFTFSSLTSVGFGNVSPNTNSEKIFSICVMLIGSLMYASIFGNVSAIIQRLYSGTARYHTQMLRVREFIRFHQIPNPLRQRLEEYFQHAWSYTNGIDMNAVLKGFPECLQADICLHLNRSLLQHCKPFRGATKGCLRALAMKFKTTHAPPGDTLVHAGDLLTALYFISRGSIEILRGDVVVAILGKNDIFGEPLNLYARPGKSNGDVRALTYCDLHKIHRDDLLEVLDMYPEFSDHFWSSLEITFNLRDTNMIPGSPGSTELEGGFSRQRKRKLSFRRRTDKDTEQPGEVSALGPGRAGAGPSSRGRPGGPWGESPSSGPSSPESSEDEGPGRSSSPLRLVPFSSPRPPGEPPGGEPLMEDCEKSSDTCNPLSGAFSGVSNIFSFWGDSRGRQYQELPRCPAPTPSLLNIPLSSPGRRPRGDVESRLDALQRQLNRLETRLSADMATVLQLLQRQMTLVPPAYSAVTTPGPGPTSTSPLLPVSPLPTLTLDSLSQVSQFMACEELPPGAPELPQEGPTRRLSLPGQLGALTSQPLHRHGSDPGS

| Structure (SMILES) | hERG current change (%, negative = inhibition) at 1uM [%] |
| --- | --- |
| CCCCn1c(SCc2nc(N)nc(Nc3ccccc3C)n2)nc2ccccc2c1=O | 2.25 |
| COc1ccc(C(c2sc3nc(C)nn3c2O)N2CCc3ccccc3C2)cc1 (centres unmarked) | 12.6 |
| O=C(NCCc1nc2ccccc2[nH]1)c1ccco1 | 11.5 |
| CCC(=O)Nc1ccc(C(=O)Nc2ccc3c(c2)OCO3)cc1 | 19.6 |
| O=c1oc2ccccc2c2c1C(O)CO2 (centres unmarked) | 17.5 |
| CCn1cc(C2C(C(=O)Nc3ccc(Br)cn3)=C(C)NC3=C2C(=O)CCC3)c(C)n1 (centres unmarked) | 11.2 |
| CCOc1ccc(N2C(=O)/C(=C/c3ccccn3)SC2=S)cc1 | 1.84 |
| Cc1ccc2c(Cl)c(C(=O)Nc3cccnc3)sc2c1 | 16.1 |
| Cc1ccc(CS(=O)Cc2ccc(C(=O)N3CCN(C4CCCCC4)CC3)o2)cc1 (centres unmarked) | 9.81 |
| Cc1ccc(C)c(C(=O)c2c(C)nc3sccn23)c1 | -9.68 |
| Cc1nc(C(=O)NNC(=O)c2c(-c3c(Cl)cccc3Cl)noc2C)cs1 | 7.1 |
| COc1cccc(C=O)c1OCCCOc1cccc2cccnc12 | 11.9 |
| Cc1cc(C)n2nc(SCC(=O)N(Cc3ccccc3)C3CCS(=O)(=O)C3)nc2n1 (centres unmarked) | 12.7 |
| CCOc1ccccc1N1CCN(C(=O)c2cn(CC3CCCCC3)nn2)CC1 | 0.776 |
| C#CCN1C(=O)C(O)(CC(=O)c2ccc(OC)c(OC)c2)c2ccccc21 (centres unmarked) | 0.756 |
| O=c1c2ccccc2nc(SCc2ccccc2F)n1C1CCCC1 | 7 |
| CSc1nnc(-c2ccc(C(F)(F)F)nc2C)o1 | 9.09 |
| CCOc1ccccc1NC(=O)Cc1ccccc1OC | 4.73 |
| CCOc1cccc(C2/C(=C(/O)c3ccc4c(c3)CC(C)O4)C(=O)C(=O)N2CCN2CCOCC2)c1 (centres unmarked) | 11.6 |
| CCOc1ccc(OCC)c(NC(=O)C2COc3ccccc3O2)c1 (centres unmarked) | 11.9 |
| Cc1ccc(Cn2c(=O)c3ccccc3n3c(SCC(=O)N4CCCCC4C)nnc23)cc1 (centres unmarked) | -16.1 |
| Cc1ccc(CNC(=O)c2ccc(N3CCC4(CC3)CC(c3ccccc3)=NO4)c(NC(=O)c3ccco3)c2)cc1 | 11 |
| O=C1N(c2ccccc2)C2CS(=O)(=O)CC2N1c1ccc(Cl)c(Cl)c1 (centres unmarked) | 9.4 |

| Structure (SMILES) | hERG current change (%, negative = inhibition) at 1uM [%] |
| --- | --- |
| COC(=O)COc1cc2ccccc2cc1C(=O)Nc1ccccc1 | 6.49 |
| COc1ccccc1/C=C1\Cc2ccccc2C1=O | 9 |
| Nc1nonc1/C(=N/O)N1CCN(CCO)CC1 | -4.07 |
| C=CCc1ccc(OCC(O)CO)c(OC)c1 (centres unmarked) | 14.3 |
| COc1ccc(NC(=S)NCc2ccc(F)cc2)cc1 | 0.619 |
| CCN(CC)C(=O)C(=O)Nc1cc(C(F)(F)F)ccc1Cl | 6.47 |
| Oc1cc2c(cc1CN1CCN(c3cccc(C(F)(F)F)c3)CC1)CCC2 | 4.86 |
| COC(=O)c1ccccc1NC(=O)C(C)n1nc(C)c2c(C)n(-c3ccccc3)nc2c1=O (centres unmarked) | 18 |
| CCOc1ccc(S(=O)(=O)Nc2ccccc2C(=O)N2CCCC2)cc1 | 6.12 |
| CC(NC(=O)c1cc(COc2c(F)cccc2F)on1)c1cnn(-c2ccccc2)c1 (centres unmarked) | 4.97 |
| Cc1ccc(CSCc2ccc(C(=O)NC3CC3)o2)cc1 | 5.51 |
| Cc1ccc(OCC(=O)N2CCN(CC3CC4C=CC3C4)CC2)cc1.O=C(O)C(=O)O (centres unmarked) | 3.15 |
| O=C(CCc1nnc(CCCc2ccccc2)o1)N1CCCCCC1 | 30.5 |
| C[C@@H](NC(=O)c1nc[nH]c1C(=O)N[C@H](C)c1ccccc1)c1ccccc1 | 12.1 |
| CCOC(=O)N1CCN(c2ccnc3cc(Cl)ccc23)CC1 | -36.7 |
| CN(c1ccccc1)S(=O)(=O)c1cccc(C(=O)NC2CC(C)(C)NC(C)(C)C2)c1 | 2.96 |
| Cc1ccc(Oc2ncccc2NC(=O)CCCC(=O)O)c2c1CCC2 | 14.8 |
| O=C1[C@@H]2C(Cc3ccc(O)cc3)NC3(C(=O)Nc4ccc(F)cc43)[C@@H]2C(=O)N1c1ccc(F)cc1 (some centres unmarked) | 14.6 |
| O=C1OC(Nc2ccc3c(c2)OCO3)c2ccccc21 (centres unmarked) | 11.3 |
| COc1ccc(S(=O)(=O)N2CCCC(C(=O)Nc3ccc4c(c3)OCCO4)C2)cc1 (centres unmarked) | 13.4 |
| Cl.O=C(O)c1ccc(CNCc2cc(Cl)ccc2O)cc1 | 4.72 |
| Cc1ccnc(Nc2nc(-c3ccc(O)c(O)c3)cs2)c1 | 11.7 |
| CC(C(=O)Nc1ccc(F)c(F)c1F)N(C)CCOc1ccccc1 (centres unmarked) | 12.2 |

| Structure (SMILES) | hERG current change (%, negative = inhibition) at 1uM [%] |
| --- | --- |
| O=C(O)c1ccc(-c2ncc[nH]2)cc1 | 11.8 |
| O=C1NC2(CCSC2)C(=O)N1CC(=O)N(Cc1ccccc1)C1CCS(=O)(=O)C1 (centres unmarked) | 11.8 |
| Cc1nn(-c2ccccn2)c2c1-c1nc(N3CCOCC3)ncc1CC2 | 8.1 |
| COc1ccccc1C(=O)Nc1nnc(SCC(=O)NC2CCCC2)s1 | 17.5 |
| COc1ccc(Cn2c(SCc3cc(C)ccc3C)nc3cc(OC)c(OC)cc3c2=N)cc1 | 5.43 |
| CCOC(=O)C1CCN(C(=O)c2cc3cc4ccc(OC)cc4nc3o2)CC1 | 6.86 |
| O=C(NCCS(=O)(=O)N1CCCCCC1)c1ccc(F)cc1 | 4.62 |
| O=C(CNS(=O)(=O)c1ccccc1)NCC(=O)OCc1ccc(Cl)cc1 | 10.3 |
| O=C(NC1CCCC1)C1CCCN1S(=O)(=O)c1cccc2cccnc12 (centres unmarked) | 6.11 |
| Nc1cc(C(=O)O)ccc1N1CCCCC1 | 1.1 |
| CC1(C)Cc2c(sc(NC(=O)Cc3ccccc3)c2C#N)CO1 | 8.87 |
| CCCCn1c(SCC(=O)N2CCCCC2)nc2cc(S(N)(=O)=O)ccc21 | -2.98 |
| C/C(=N\NC(=O)Cc1ccc(F)cc1)c1ccc(F)cc1 | -4.95 |
| COc1cccc(NC(=S)N(CCC(C)C)C2CCN(C(C)=O)CC2)c1 | 6.52 |
| COC(=O)C1=C(C(C)=O)C(c2ccc(C)cc2)n2nnnc2N1 (centres unmarked) | 11.5 |
| O=C(CNc1ccc(C(F)(F)F)cc1)Nc1cccc(S(=O)(=O)N2CCCC2)c1 | 3.25 |
| CC(=O)c1cccc(OCc2cc(C(=O)NCc3nc(C)c(C)s3)no2)c1 | 11.2 |
| COc1ccc(S(=O)(=O)N2CCN(C(=O)c3cccc(Cl)c3)CC2)cc1 | 3.61 |
| CCOC(=O)C(=CNc1cccc(C)n1)C(=O)OCC | 3.1 |
| O=C(Nc1ccc(C(=O)N2CCCCC2)cc1)c1ccccc1Br | 9.57 |
| CCOC(=O)c1nn(-c2ccccc2)c(C)c1C(C)=O | 9.89 |
| CCc1noc(C)c1C(=O)Nc1ccc(C)c(S(=O)(=O)N2CCCCCC2)c1 | 8.12 |
| CO/N=C/C(=N\Nc1cc(OC)cc(OC)c1)C(=O)c1ccccc1 | 10.4 |

| Structure (SMILES) | hERG current change (%, negative = inhibition) at 1uM [%] |
| --- | --- |
| CCOC(=O)c1ccc(NC(=O)NCc2ccccc2)cc1 | 0.459 |
| CNC(=O)c1nnn(Cc2ccccc2)c1NC(C)=O | 12.5 |
| O=C1CCCC(=NCc2ccco2)C1 | 2.32 |
| CCc1cc(C(=O)OC)c(NC(=O)c2cc(Br)cs2)s1 | 0.713 |
| CC(Oc1ccccc1)C(=O)N1CCC2(CC1)Oc1ccc(F)cc1C(=O)C21CC(c2ccc(Cl)cc2)=NO1 (centres unmarked) | 10.4 |
| COC(=O)c1nc(-c2ccc(C)cc2)oc1N(C)C | 4.87 |
| CCCCc1nnc(NC(=O)Cc2ccc(S(=O)(=O)N3CCOCC3)s2)s1 | 11.9 |
| CC(=O)c1sc(NC(=O)CCS(=O)(=O)c2ccccc2)nc1C | 9.46 |
| Nc1ccc(C(=O)Nc2cccc(NC(=O)c3ccc(N)cc3)c2)cc1 | 13.5 |
| CCOC(=O)c1c(-c2ccc(OC)cc2)csc1NC(=O)CCN1CCOCC1 | 4.98 |
| O=C(CCc1nc2ccccc2c(=O)[nH]1)OCC(=O)c1cccc(Cl)c1 | 9.52 |
| COc1ccc(/C=C/C(=O)Oc2cccc(/C=N/NC(=O)Cc3ccc(Br)cc3)c2)cc1 | 6.97 |
| CC(Oc1ccc(Br)cc1Br)C(=O)NC1CCCC1 (centres unmarked) | 7.36 |
| CC(NC(=O)c1cc(S(=O)(=O)N2CCOCC2)cn1C)c1ccccc1 (centres unmarked) | 5.72 |
| Cc1c(NC(=O)CC(O)(C(F)(F)F)C(F)(F)F)c(=O)n(-c2ccccc2)n1C | 12.9 |
| COC(=O)C1=C(c2ccccc2OCc2ccccc2)C[C@@H]2CC[C@H]1N2C(=O)NCc1ccc(C(C)(C)C)cc1 | 12.8 |
| CN1CCc2c(sc(NC(=O)C3CCCCC3)c2C(N)=O)C1.Cl | 7.86 |
| O=C(Cc1ccccc1F)c1ccc(O)cc1O | 13.9 |
| O=C(CCN1N=C(c2ccccc2)CCC1=O)NC1CCCC1 | 20.4 |
| Cc1csc(=O)n1CC(=O)OCC(=O)c1c(N)n(CC(C)C)c(=O)n(C)c1=O | 9.7 |
